Reference: article PMC5892938
The list shows a part of the results. At the low end of the ranking, values are background and their order means little.

Target: GST-SBP-SLBP (stem-loop binding protein) (UniProt Q14493)
Assay: targeted RNA Bind-n-Seq;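 note: DESeq read counts versus GST-SBP nonspecific binding control pulldown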
Details: RBNS binding buffer: 25 mM Tris pH 7.5, 150 mM KCl, 3 mM MgCl2, 0.1% Tween, 0.5 mg/mL BSA, 1 mM DTT; 27 nM protein, 750 pM RNA pool; temperature not stated; high values mean tight binding

For “GGUCACGUCUCAAUCAACUCAUCUCCCAGGGAAAGCCCUGGUUUUCUCAACAGCUCGCAGUCAAG”, which binding signal (log2 fold change) is on record?
Its binding signal (log2 fold change) is -0.192.

How did the binding signal (log2 fold change) turn out when “GGUCACGUCUCAAUCAACUCAAUCCCCAGGGAAACCCCUGGUAAAUUCAACAGCUCGCAGUCAAG” was run?
The binding signal (log2 fold change) was -0.121.

With “GGUCACGUCUCAAUCAACUCAUUCUCAGGAGUUUUCUCCUGUUAUUUCAACAGCUCGCAGUCAAG” as the sequence, how does the binding signal (log2 fold change) read?
Its binding signal (log2 fold change) is -0.0806.

For “GGUCACGUCUCAAUCAACUCUUCUUCCAGGGAAAUCCCUGGUAUUUUCAACAGCUCGCAGUCAAG”, which binding signal (log2 fold change) is on record?
The binding signal (log2 fold change) was -0.466.

“GGUCACGUCUCAAUCAACUCAUUCGAGGGGGGGAAAACCCCUUUACCCUCUACCUCAACAGCUCGCAGUCAAG” was tested. Which binding signal (log2 fold change) did it give?
The binding signal (log2 fold change) was -0.0771.

“GGUCACGUCUCAAUCAACUCUACGCCAGGAGUUUUCUCCUGCUUUUUCAACAGCUCGCAGUCAAG” was tested. Which binding signal (log2 fold change) did it give?
Its binding signal (log2 fold change) is -0.215.

With “GGUCACGUCUCAAUCAACUCAAUCUCCAGGGAAACCCCUGGUAUUCUCAACAGCUCGCAGUCAAG” as the sequence, how does the binding signal (log2 fold change) read?
Its binding signal (log2 fold change) is -0.0331.

Which binding signal (log2 fold change) does the source give for “GGUCACGUCUCAAUCAACUCUUCCUCCAGGGAAAUCCCUGGCUUUCUCAACAGCUCGCAGUCAAG” here?
Its binding signal (log2 fold change) is -0.0301.

How did the binding signal (log2 fold change) turn out when “GGUCACGUCUCAAUCAACUCAUCGUCAGGAGUUUUCUCCUGUUUACUCAACAGCUCGCAGUCAAG” was run?
Its binding signal (log2 fold change) is 0.105.

With “GGUCACGUCUCAAUCAACUCAUUUCCAGGAGUUUACUCCUGCAAUUUCAACAGCUCGCAGUCAAG” as the sequence, how does the binding signal (log2 fold change) read?
Its binding signal (log2 fold change) is 0.215.

“GGUCACGUCUCAAUCAACUCUUCCUCCAGGGAAAUCCCUGGUUUUUUCAACAGCUCGCAGUCAAG” was tested. Which binding signal (log2 fold change) did it give?
The binding signal (log2 fold change) was -0.0926.

For “GGUCACGUCUCAAUCAACUCUUUUCCCAGGGAAAACCCUGGCUUACUCAACAGCUCGCAGUCAAG”, which binding signal (log2 fold change) is on record?
Its binding signal (log2 fold change) is 0.0362.

Which binding signal (log2 fold change) does the source give for “GGUCACGUCUCAAUCAACUCAUAAGAGGGGGGGAAAACCCCUUUACCCUCGUCAUCAACAGCUCGCAGUCAAG” here?
The binding signal (log2 fold change) was 0.103.

How did the binding signal (log2 fold change) turn out when “GGUCACGUCUCAAUCAACUCUUUUCCAGGAGUUUACUCCUGUAUACUCAACAGCUCGCAGUCAAG” was run?
Its binding signal (log2 fold change) is 0.0395.

How did the binding signal (log2 fold change) turn out when “GGUCACGUCUCAAUCAACUCUAUCCCAGGAGUUUCCUCCUGCUUUCUCAACAGCUCGCAGUCAAG” was run?
Its binding signal (log2 fold change) is -0.125.

Which binding signal (log2 fold change) does the source give for “GGUCACGUCUCAAUCAACUCUCUCGAGGGGGGGAAAACCCCUUUACCCUCUACAUCAACAGCUCGCAGUCAAG” here?
Its binding signal (log2 fold change) is -0.101.

For “GGUCACGUCUCAAUCAACUCUUAAGAGGGGGGGAAAACCCCUUUGCCCUCAUCAUCAACAGCUCGCAGUCAAG”, which binding signal (log2 fold change) is on record?
Its binding signal (log2 fold change) is -0.114.

“GGUCACGUCUCAAUCAACUCAAUAGAGGGGGGGAAAACCCCUUUACCCUCCAACUCAACAGCUCGCAGUCAAG” was tested. Which binding signal (log2 fold change) did it give?
The binding signal (log2 fold change) was 0.254.

“GGUCACGUCUCAAUCAACUCCUCUGAGGGGGGGAAAACCCCUUUACCCUCCAUAUCAACAGCUCGCAGUCAAG” was tested. Which binding signal (log2 fold change) did it give?
The binding signal (log2 fold change) was -0.077.

“GGUCACGUCUCAAUCAACUCUUCGGAGGGGGGGAAAACCCCUUUACCCUCGUCAUCAACAGCUCGCAGUCAAG” was tested. Which binding signal (log2 fold change) did it give?
The binding signal (log2 fold change) was 0.152.

Which binding signal (log2 fold change) does the source give for “GGUCACGUCUCAAUCAACUCAUUUUCAGGAGUUUACUCCUGCUAAUUCAACAGCUCGCAGUCAAG” here?
Its binding signal (log2 fold change) is 0.0742.

“GGUCACGUCUCAAUCAACUCAUUUCCCAGGGAAAGCCCUGGCUUACUCAACAGCUCGCAGUCAAG” was tested. Which binding signal (log2 fold change) did it give?
Its binding signal (log2 fold change) is 0.091.

Which binding signal (log2 fold change) does the source give for “GGUCACGUCUCAAUCAACUCUACUUCCAGGGAAAGCCCUGGUUUAUUCAACAGCUCGCAGUCAAG” here?
Its binding signal (log2 fold change) is 0.126.

“GGUCACGUCUCAAUCAACUCUAUCCCCAGGGAAACCCCUGGCAUUCUCAACAGCUCGCAGUCAAG” was tested. Which binding signal (log2 fold change) did it give?
The binding signal (log2 fold change) was -0.123.

Which binding signal (log2 fold change) does the source give for “GGUCACGUCUCAAUCAACUCAGUCCCCAGGGAAACCCCUGGCAUAUUCAACAGCUCGCAGUCAAG” here?
Its binding signal (log2 fold change) is 0.0609.

Which binding signal (log2 fold change) does the source give for “GGUCACGUCUCAAUCAACUCCUUAGAGGGGGGGAAAACCCCUUUGCCCUCGUCAUCAACAGCUCGCAGUCAAG” here?
The binding signal (log2 fold change) was 0.203.

Which binding signal (log2 fold change) does the source give for “GGUCACGUCUCAAUCAACUCUUUCCCCAGGGAAAGCCCUGGUAAAUUCAACAGCUCGCAGUCAAG” here?
The binding signal (log2 fold change) was 0.0435.

Which binding signal (log2 fold change) does the source give for “GGUCACGUCUCAAUCAACUCAUCUCCAGGAGUUUGCUCCUGCUAAUUCAACAGCUCGCAGUCAAG” here?
Its binding signal (log2 fold change) is -0.0276.

“GGUCACGUCUCAAUCAACUCCCUCGAGGGGGGGAAAACCCCUUUACCCUCUAUAUCAACAGCUCGCAGUCAAG” was tested. Which binding signal (log2 fold change) did it give?
The binding signal (log2 fold change) was 0.174.

“GGUCACGUCUCAAUCAACUCAAUCUCCAGGGAAAUCCCUGGCAUACUCAACAGCUCGCAGUCAAG” was tested. Which binding signal (log2 fold change) did it give?
The binding signal (log2 fold change) was -0.0198.

“GGUCACGUCUCAAUCAACUCCCUGGAGGGGGGGAAAACCCCUUUACCCUCAAAUUCAACAGCUCGCAGUCAAG” was tested. Which binding signal (log2 fold change) did it give?
Its binding signal (log2 fold change) is -0.197.

Which binding signal (log2 fold change) does the source give for “GGUCACGUCUCAAUCAACUCUUUUCCAGGAGUUUCCUCCUGCAUACUCAACAGCUCGCAGUCAAG” here?
Its binding signal (log2 fold change) is 0.112.

For “GGUCACGUCUCAAUCAACUCAAGUCCAGGAGUUUCCUCCUGUAAUCUCAACAGCUCGCAGUCAAG”, which binding signal (log2 fold change) is on record?
The binding signal (log2 fold change) was 0.0479.

With “GGUCACGUCUCAAUCAACUCUAUCUCCAGGGAAAGCCCUGGUUAUCUCAACAGCUCGCAGUCAAG” as the sequence, how does the binding signal (log2 fold change) read?
Its binding signal (log2 fold change) is 0.334.

“GGUCACGUCUCAAUCAACUCAUCUUCCAGGGAAAGCCCUGGCUUUUUCAACAGCUCGCAGUCAAG” was tested. Which binding signal (log2 fold change) did it give?
Its binding signal (log2 fold change) is -0.0377.

How did the binding signal (log2 fold change) turn out when “GGUCACGUCUCAAUCAACUCUUCCUCAGGAGUUUCCUCCUGUAUACUCAACAGCUCGCAGUCAAG” was run?
The binding signal (log2 fold change) was -0.0324.

How did the binding signal (log2 fold change) turn out when “GGUCACGUCUCAAUCAACUCAACUCCCAGGGAAACCCCUGGUAUAUUCAACAGCUCGCAGUCAAG” was run?
The binding signal (log2 fold change) was 0.106.
